Some of the results follow.

For this test, the system named is PfSIP2 AP2 domain 1 (GST-tagged). The test can be described thus: gcPBM binding intensity (ln(normalized median fluorescence intensity)); higher = stronger DNA binding. In short, it runs like this: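 Binding intensity values are the highest Masliner-normalised natural-log median intensity among replicate spots of either probe orientation. The binding step lasted 1 h in 1× PBS with 1% milk, 0.2 mg/ml BSA, 0.5% salmon testes DNA and 0.03% Triton X-100, using GST-tagged P. falciparum DNA-binding domains expressed in E. coli on an Agilent 4 × 180k array of primer-extended double-stranded 36-bp intergenic genomic probes plus negative controls. Alexa488 anti-GST antibody and a 488 nm scan detected bound protein.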
On to “AAATATAAACTCAGCACACAAACATATATATGTCAT [CACACA_site4004]”, for which the “gcPBM binding intensity (ln)” value was determined as 6.91.

Regarding “ATGGTATAAAAAAATACACACTTATATATATTCTTA [CACACA_site4427]”, the “gcPBM binding intensity (ln)” value stood at 6.86.

For the sequence “TTTTTTTTTTTTTCTCGTACAAAATAATACCTTTTT [XGTACX_site3867]”, the “gcPBM binding intensity (ln)” value is 6.92.

On to “GTAGACATTATAATGGTGCAAAAAAATTAACAAAAA [GTGCAC_site9891]”, for which the “gcPBM binding intensity (ln)” value worked out at 10.5.

For the sequence “AGGGAATATTTTTATGCATGTGCTTACACATTACAA [TGCATGCA_site830]”, the “gcPBM binding intensity (ln)” value amounted to 7.11.

“AAAAAAAACGGACACACACACATACAAAATATATAT [CACACA_site4910]”: the “gcPBM binding intensity (ln)” value was 7.22.

“AAGAAAAGCATAGATGCACACATATATATATATATA [CACACA_site8675]”: the “gcPBM binding intensity (ln)” value turned out to be 9.61.

In the case of “GGAACTTAAAAAAAATGTACTTATAAAAAAGGAAAT [XGTACX_site8186]”, the “gcPBM binding intensity (ln)” value was found to be 7.04.

Regarding “AACATGCAAACATGCACACAGAAAAAAAAAATATAT [CACACA_site1565]”, the “gcPBM binding intensity (ln)” value turned out to be 8.15.

As for “TTACACATACATATGTGGGAAAATATTGCTACATAT [CACACA_negctrl_site463]”, the “gcPBM binding intensity (ln)” value is 6.89.

In the case of “TATATATATATATATACACACATATATATATTTTTC [CACACA_site3983]”, the “gcPBM binding intensity (ln)” value stood at 9.83.

For the sequence “ATCATTATATTATGGTGTACCCATATATAATTATCA [XGTACX_site551]”, the “gcPBM binding intensity (ln)” value came out at 7.11.

For the sequence “CATTAAACCGTGGGAGCACACACACCCACCCACCCA [CACACA_site8000]”, the “gcPBM binding intensity (ln)” value was 7.26.

As to “AATTTAAAGAATTGTAGTACAATGAAATATATATAA [XGTACX_site7970]”, the “gcPBM binding intensity (ln)” value was found to be 7.05.

As for “AATACCTATGGAATTAATAATATGTGTACAGACACA [TGCATGCA_negctrl_site547]”, the “gcPBM binding intensity (ln)” value is 7.02.

“AACAATGGATTATTCACACATAAAAAAATTCACATT [CACACA_site5437]”: the “gcPBM binding intensity (ln)” value is 6.79.

Consider “AAAAAAATATATATATGTACATAACTTTGTTGTGAT [XGTACX_site5243]”, for which the “gcPBM binding intensity (ln)” value came to 7.17.

Turning to “TGTTAAATTATTTATCAGATTATTATTTGTAAATAA [CACACA_negctrl_site1535]”, the “gcPBM binding intensity (ln)” value came to 6.7.

On to “TTTGAACATTTTGCAAGTACAAAAAAATAATATATC [XGTACX_site8079]”, for which the “gcPBM binding intensity (ln)” value was found to be 7.08.

Take “AAGAAAAATAATTAGGGTGAAAATATATAGAGTAAA [TGCATGCA_negctrl_site590]”: the “gcPBM binding intensity (ln)” value turned out to be 7.06.

As for “CAATTCTTAAGTTCTTGTACGAAAAACGACAATTTA [XGTACX_site3890]”, the “gcPBM binding intensity (ln)” value stood at 6.75.

On to “ACACATATATATATATATATATATATATATATATAT [CACACA_negctrl_site1766]”, for which the “gcPBM binding intensity (ln)” value worked out at 9.44.

As for “GGTAATAATATGCATAGTACATAATATATATATATA [XGTACX_site6793]”, the “gcPBM binding intensity (ln)” value amounted to 9.41.

“TATTATATAAAATATTTTATTATATCATCTTCTCTA [XGTACX_negctrl_site319]”: the “gcPBM binding intensity (ln)” value is 6.77.

With “ATAATATAAATAATTATACACACTTAATATATATAT [CACACA_site2782]”, the “gcPBM binding intensity (ln)” value was determined as 8.43.

On to “GTATGTATGTATGTATGTACGTATTTATTTATTTAA [XGTACX_site726]”, for which the “gcPBM binding intensity (ln)” value worked out at 8.09.

Regarding “AAAAATGGTGTTAACACACACATATAAATAAATATA [CACACA_site6412]”, the “gcPBM binding intensity (ln)” value is 6.87.

“TAAATGTGAAATTTTATATTTTATATAATATACAAT [CACACA_negctrl_site76]”: the “gcPBM binding intensity (ln)” value was found to be 6.75.

For “AAGGATCACCCACAAACACACATATATATATATATA [CACACA_site559]”, the “gcPBM binding intensity (ln)” value amounted to 9.78.

Turning to “AACATAAGTAATATTTGTACATATATAATAATATAT [XGTACX_site5123]”, the “gcPBM binding intensity (ln)” value was determined as 6.95.

Turning to “ATCATATTTTTATGTGTGCACTTTTTTTTTTTTTTT [GTGCAC_site9555]”, the “gcPBM binding intensity (ln)” value came to 10.8.

On to “CTCTTATACATATTCCTGCACTTATTTTTAAAAACA [GTGCAC_site9620]”, for which the “gcPBM binding intensity (ln)” value was found to be 8.37.

Take “TAATTTTATATAAATTGTACAAAAATATTTTATTAA [XGTACX_site7166]”: the “gcPBM binding intensity (ln)” value was 7.04.

Turning to “TAAAATATACAAATTTGTACATATATATGTATGTAT [XGTACX_site1127]”, the “gcPBM binding intensity (ln)” value stood at 7.24.

For the sequence “TGCAGGTGTTATTCACGTACGCATTTGATTAAAAAA [XGTACX_site7743]”, the “gcPBM binding intensity (ln)” value stood at 7.01.

Take “ATTAGAAAATAAAATAATAAATAAAATAAAAAAAAA [CACACA_negctrl_site409]”: the “gcPBM binding intensity (ln)” value is 6.65.

With “ATAAAAACATAAAAATGTACATATATATATATATAT [XGTACX_site7165]”, the “gcPBM binding intensity (ln)” value came to 9.51.

As to “AATATTAGGTTATGTAGTACATAACAATAATTATAC [XGTACX_site5733]”, the “gcPBM binding intensity (ln)” value worked out at 7.26.

Take “TTTTATTTTATTCAATTTTTACTTTTATAAAAATAT [GTGCAC_negctrl_site578]”: the “gcPBM binding intensity (ln)” value was 6.95.

For the sequence “ATGTATATGCAAACATGTACATATATAAACATATAT [XGTACX_site4159]”, the “gcPBM binding intensity (ln)” value was found to be 6.86.

Regarding GTGTTGGGAAAAGGCATGCACTTTTTTTTTTTTTTT, the “gcPBM binding intensity (ln)” value worked out at 9.34.

Turning to “ATAAAGAATATAAATACACACTTAAATATATATTAT [CACACA_site6071]”, the “gcPBM binding intensity (ln)” value was found to be 6.82.

On to “AAGGAATATGTATATACACACAGGTACATATTTATA [CACACA_site6344]”, for which the “gcPBM binding intensity (ln)” value stood at 7.05.

As to “CACAAAAATTTATACACACACATATAAAATATAGAT [CACACA_site6218]”, the “gcPBM binding intensity (ln)” value came to 6.96.

As for “TTCACTATACAAAGGTGTACTTAATTTTGTCCCATT [XGTACX_site7483]”, the “gcPBM binding intensity (ln)” value was determined as 7.15.
